Reference: ChEMBL document CHEMBL1201862, “PubChem BioAssay data set” (2004)
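Tested at 5 concentrations; 48 h exposure; 96-well plates; endpoints linearly interpolated, else capped at highest concentration. Abbreviation: GI50, concentration required for 50% inhibition of growth.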 Calls of active or inactive are those of the source. Cut-off read from the data, not from the text of the source: active = GI50 up to about 1.1 µM and inactive = higher.

Each compound was assayed on NCI-H322M (assay: growth of human tumour cells (NCI), 48 h).
`O=C1c2c(O)cccc2C(C2OC(CO)C(O)C(O)C2O)c2cc(CO)cc(O)c21` (stereo unspecified) was tested, and the GI50 was inactive: > 100 µM. `Cc1cn([C@H]2C[C@H](O)[C@@H](CO)O2)c(=O)nc1N` was tested, and the GI50 was inactive: > 100 µM. `CC12CCC(C1)C(C)(C)C2OC(=O)c1ccccc1C(=O)O` (stereo unspecified) was tested, and the GI50 was inactive: > 100 µM. In the case of `[O-][S+]1CSSC1`, the GI50 is reported as inactive: 25.6 µM. `C#C[C@]1(O)CC[C@H]2[C@@H]3CCC4=C/C(=N/OC(=O)c5cccc6c(=O)c7ccccc7[nH]c56)CCC4[C@H]3CC[C@@]21CC` (stereo partly specified) was tested, and the GI50 was inactive: 49.1 µM. For `O=C(/C=C/c1ccc2ccccc2c1)NCc1ccc(C(=O)NCc2ccccc2)cc1`, the GI50 was inactive: > 100 µM. In the case of `O=C1C(=Cc2ccccc2[N+](=O)[O-])N=C(c2ccccc2)N1n1c(-c2ccccc2)nc2ccccc2c1=O`, the GI50 is reported as inactive: 30.6 µM. With `CC(=O)N1C(=O)C(=O)c2cc(Cl)ccc21` the GI50 was inactive: > 100 µM. For `CN(C)CCNc1ccc(C(=O)NCCCN(C)CCCNC(=O)c2ccc(NCCN(C)C)c3c(=O)c4ccccc4[nH]c23)c2[nH]c3ccccc3c(=O)c12`, the GI50 was active: 0.0254 µM. With `O=C1/C(=C/c2ccccc2)CN(C(=O)OCC(Cl)(Cl)Cl)C/C1=C\c1ccccc1` the GI50 was inactive: 10.6 µM. For `COc1ccc(/C=N/NS(=O)(=O)c2ccc(/C=C3\NC(=O)NC3=O)cc2)cc1`, the GI50 was inactive: 95.5 µM. With `C[P+](C)(CC(F)(F)F)c1ccccc1` the GI50 was inactive: > 100 µM. With `O=C(NN=C1NCCN1)c1ccco1` the GI50 was inactive: > 100 µM. For `O=[N+]([O-])c1cccc2nnccc12`, the GI50 was inactive: 18.5 µM. `CCOC(=O)C(Cc1ccc(OC(=O)OC(C)(C)C)cc1)NC(=O)OC(C)(C)C` (stereo unspecified) was tested, and the GI50 was inactive: > 100 µM. With `COc1ccc(NC(=O)C(=O)c2c(O)c3ccc(O)cc3oc2=O)c([N+](=O)[O-])c1` the GI50 was inactive: > 100 µM. `O=C(O)CC1NCc2cc3ccccc3nc21` (stereo unspecified) was tested, and the GI50 was inactive: > 100 µM. For `O=C(O)c1c[nH]c2c(ccc3ncccc32)c1=O`, the GI50 was inactive: > 100 µM. In the case of `Cn1cnc([N+](=O)[O-])c1[Se]c1nc(N)nc2c1ncn2C1OC(CO)C(O)C1O` (stereo unspecified), the GI50 is reported as inactive: > 100 µM. For `O=C(Nc1nc2ccc([N+](=O)[O-])cc2s1)C(=O)C(C(=O)c1ccncc1)C1OC(=O)c2ccccc21` (stereo unspecified), the GI50 was inactive: 90.6 µM. In the case of `C=CC1(C)CCC2C(=CCC3C2(C)CC(O)C(O)C3(C)COC2OC(CO)C(O)C(O)C2O)C1` (stereo unspecified), the GI50 is reported as inactive: > 100 µM. `NNc1nncc2[nH]cnc12` was tested, and the GI50 was inactive: > 100 µM. With `CCCCSC1=N/C(=C\c2ccco2)C(=O)N1` the GI50 was inactive: > 100 µM. In the case of `CC(C)CC(=O)N1CCN(C(=O)CC(C)C)c2ccccc21`, the GI50 is reported as inactive: > 100 µM. With `O=C(NCCCCCCNC(=O)c1cccc2ccccc12)Nc1cccc2ccccc12` the GI50 was inactive: > 100 µM. For `CCN1CCC(O)(/C=C/c2ccccc2)C(C(=O)/C=C/c2ccccc2)C1` (stereo unspecified), the GI50 was inactive: 5.5 µM. `Cc1cc2c(=O)cc(-c3ccc(F)cc3)oc2c(C(=O)O)c1C` was tested, and the GI50 was inactive: > 100 µM. `CC12CCc3ccccc3C1=NNC(=O)C2` (stereo unspecified) was tested, and the GI50 was inactive: > 100 µM. `CCCC(=O)OC1C(C2COC(C)(C)O2)OC2OC(C)(C)OC21` (stereo unspecified) was tested, and the GI50 was inactive: > 100 µM. In the case of `Nc1ccc(C2=N/C(=C\c3cccc(N)c3)C(=O)O2)cc1`, the GI50 is reported as inactive: > 100 µM. With `O=C1OC(O)C(Oc2ccc(Cl)cc2)=C1Cl` (stereo unspecified) the GI50 was inactive: > 100 µM. With `CCOC(=O)C1=C(C)C(C(=O)OC)/C(=C/c2cccc3cccnc23)C1=O` (stereo unspecified) the GI50 was inactive: > 10 µM. For `O=C1CCc2c(sc3ncnc(Nc4cccc(Br)c4)c23)C1`, the GI50 was inactive: 3.94 µM. `C=C(C)C(O)C(O)c1c(OC)ccc2ccc(=O)oc12` (stereo unspecified) was tested, and the GI50 was inactive: > 100 µM. With `O=CC1C[C@@H](N2C(=O)O[C@@H](c3ccccc3)[C@H]2c2ccccc2)[C@@H]1COCc1ccccc1` (stereo partly specified) the GI50 was inactive: 19.5 µM. In the case of `O=C1c2cc3c(cc2NC(c2ccccc2F)C1O)OCO3` (stereo unspecified), the GI50 is reported as inactive: 13.8 µM. In the case of `CSC(SC)=C(C#N)C(=O)Nc1cccc(Cl)c1`, the GI50 is reported as inactive: 39.6 µM. In the case of `COC(=O)C1=Cc2cn(S(=O)(=O)c3ccc(C)cc3)c3cccc(c23)C(C=C(C)C)N1C(C)=O` (stereo unspecified), the GI50 is reported as inactive: > 100 µM. With `CCC(=O)C12OC3OC(C)(C)OC3C1OC(C)(C)O2` (stereo unspecified) the GI50 was inactive: > 100 µM. `CC(=NNC(=S)Nc1ccccc1C)c1cccc(C(C)=NNC(=S)Nc2ccccc2C)n1` was tested, and the GI50 was inactive: 6.55 µM. In the case of `O=C1c2sc(-c3ccc(Cl)cc3)cc2-n2cccc21`, the GI50 is reported as inactive: > 100 µM. With `NC(=O)SCC(=O)Nc1ccc2cccc3c2c1CC3` the GI50 was inactive: 93.1 µM. `COC(=O)n1c(=O)n(-c2ccccc2)c(=O)n1C(=O)OC` was tested, and the GI50 was inactive: > 100 µM. For `CCOC(=O)c1ccc(-n2c(SCC)nc3sc(C)c(C)c3c2=O)cc1`, the GI50 was inactive: > 100 µM. `O=NN(CCCl)C(=O)N[C@H]1CC[C@@H](CC(=O)O)CC1` was tested, and the GI50 was inactive: > 100 µM. `Cc1ccccc1NC(=O)c1cc(-c2ccc([N+](=O)[O-])cc2)nc(S)n1` was tested, and the GI50 was inactive: > 100 µM. `COc1cc2c3cc1Oc1c(OC)c(OC)cc4c1[C@@H](Cc1ccc(O)c(c1)Oc1ccc(cc1)C[C@@H]3N(C)CC2)N(C)CC4.c1ccccc1` was tested, and the GI50 was inactive: 19.7 µM. With `COC(=O)c1c(C(=O)OC)c2ccccn2c1-c1cc(OC)c(Br)c(=O)o1` the GI50 was inactive: > 100 µM. In the case of `S=C1SC(=N\c2ccccc2)/C(=N/c2ccccc2)N1c1ccc2ccccc2c1`, the GI50 is reported as inactive: > 100 µM. With `Oc1ccccc1/C=C/c1csnn1` the GI50 was inactive: > 100 µM. With `NCc1cc(O)c(O)c(O)c1` the GI50 was inactive: > 100 µM. `CCOC(=O)CC1NC(=O)CS1` (stereo unspecified) was tested, and the GI50 was inactive: > 100 µM. With `COC(=O)C(=O)C(C(=O)C(=O)Nc1nnc(S)[nH]1)c1nc2ccc([N+](=O)[O-])cc2nc1O` (stereo unspecified) the GI50 was inactive: > 100 µM. `O=C(O)c1ccccc1C(=O)c1ccc2c(c1)Cc1ccccc1-2` was tested, and the GI50 was inactive: 95.5 µM. For `CCN(C(=O)N[C@H](C(=O)N[C@@H](CSC)C(=O)N[C@@H](C)C(=O)OC)C(C)C)c1ccccc1`, the GI50 was inactive: 15.8 µM. For `O=[N+]([O-])/C(Cl)=C(\Sc1ccccc1)C(Cl)=C(Cl)Cl`, the GI50 was inactive: 1.96 µM. With `O=C(CC(=O)c1cccc([N+](=O)[O-])c1)C(=O)Nc1ccccc1` the GI50 was inactive: > 100 µM. In the case of `Cc1ccc(S(=O)(=O)CNC(=O)C(O)(O)C(F)(F)F)cc1`, the GI50 is reported as inactive: > 100 µM. In the case of `COc1cc(C2S/C(=C/c3ccccc3)C(=O)N2c2cc(Cl)c(Cl)cc2Cl)cc(OC)c1OC` (stereo unspecified), the GI50 is reported as inactive: 35.3 µM. `O=Cc1c(O)ccc2ccc(O)c(-c3c(O)ccc4ccc(O)cc34)c12` was tested, and the GI50 was inactive: > 100 µM. With `CC(C)(C)OC(=O)n1c2ccccc2c2c(=O)nc(N3CCCCC3)sc21` the GI50 was inactive: > 100 µM. In the case of `Oc1ccc2ccccc2c1/N=N/c1ccc(Br)cc1`, the GI50 is reported as inactive: > 100 µM. For `CCOC(=O)c1nc2ccccc2nc1Oc1ccc(F)cc1`, the GI50 was inactive: > 100 µM. `COc1cc(C2c3cc4c(cc3[C@@H](Nc3ccc(C#N)cc3)C3COC(=O)[C@H]23)OCO4)cc(OC)c1O` (stereo partly specified) was tested, and the GI50 was inactive: 8.43 µM. `C[C@H](CCC(=O)O)[C@H]1CC[C@H]2[C@@H]3[C@H](O)C[C@@H]4C[C@H](O)CC[C@]4(C)[C@H]3C[C@H](O)[C@]12C` was tested, and the GI50 was inactive: > 100 µM. In the case of `CO[C@@H]1C[C@H]2N3CC[C@@]2(c2cc4c(cc2C3)OCO4)[C@H]2O[C@@H]12`, the GI50 is reported as inactive: > 100 µM.
